The source of these data is PubChem BioAssay (NCATS).

Molecules are shown by their SMILES. Where “and” joins values, the source holds several entries; their conditions need not be identical. Identical values can stand only once. Some of the results follow. Shown are side measurements of this screen, not its main read-out; they come without a call. The note in brackets gives the kind of curve behind each potency; many fits are weak.
Tags give direction and shape of the fitted curve.

A short description of this assay: qHTS drug screen for cell cycle checkpoint inhibitors in PARPi-resistant BRCA-mutant ovarian cancer cell lines. (AID 1963452). Conditions: PEO1/OlaR viability, CellTiter-Glo luminescence, 96 h; measured here: PEO1 parental viability. The gist of the method:
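PEO1, PEO4 and PEO1/OlaR ovarian cancer cells, 600 per well, exposed 96 h at 37C to a dilution series. Viability read by CellTiter-Glo luminescence, normalized to DMSO and empty wells; activity summarized as Z-AUC.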
On to `COC(=O)Nc1cc(Nc2cc(NC3CC3)c3ncc(C#N)n3n2)c(Cl)c(N2CCN(C)CC2)c1`, for which the AC50 was 1.55 µM [falling, full curve].
In the case of `CCOC(=N)c1nc2ccc3ncnc(Nc4cc(F)c(F)cc4Cl)c3c2s1`, the concentration at half-maximal activity (AC50) was 5.49 µM [falling, partial curve].
The result for `Cn1cc(-c2cc(Oc3cc(F)c(NC(=O)C4(C(=O)Nc5ccccc5)CC4)cc3F)ccn2)cn1` reads 15.5 µM [falling, partial curve].
On to `COc1cc2c3c(n(CCCN4CCOCC4)c(=O)c2cc1OC)-c1cc2c(cc1C3=O)OCO2`, for which the half-maximal activity concentration (AC50) was 0.0616 µM [falling, full curve].
The result for `CNC(=O)CCc1cc(-c2ccc(-c3ccc(C(F)(F)F)cc3)cc2)n(-c2ccc(N3CCNCC3)cc2)n1` reads 3.47 µM [falling, single point].
As for `Cc1cc(N2CCOCC2)ccc1Nc1nc(NC2CCCCC2)c2[nH]cnc2n1`, the AC50 is 15.5 µM [falling, partial curve].
The result for `CS(=O)(=O)c1ccc(-c2cnc(N)c(C(=O)Nc3ccccc3)n2)cc1` reads 1.74 µM [falling, full curve, poor fit].
In the case of `O=C(Nc1ccc(OC(F)(F)Cl)cc1)c1cnc(N2CC[C@@H](O)C2)c(-c2ccn[nH]2)c1`, the half-maximal activity concentration (AC50) is 4.9 µM [falling, partial curve].
Take `CSc1ccc(C(=O)/C=C/c2cc(C)c(OC(C)(C)C(=O)O)c(C)c2)cc1`: the AC50 is 39.8 µM [falling, partial curve].
The result for `Cc1ccc(Sc2ccccc2N2CCNCC2)c(C)c1` reads 15.5 µM [falling, partial curve]; that for `CNc1ncc2cc(-c3cc(NC(=O)NCCC(C)(C)C)c(F)cc3C)c(C)nc2n1`, 5.49 µM [falling, partial curve].
In the case of `CO[C@H]1/C=C/O[C@@]2(C)Oc3c(C)c(O)c4c(O)c(c5c(nc6cc(C)ccn65)c4c3C2=O)NC(=O)/C(C)=C\C=C\[C@H](C)[C@H](O)[C@@H](C)[C@@H](O)[C@@H](C)[C@H](OC(C)=O)[C@@H]1C`, the AC50 was 5.49 µM [falling, full curve].
As to `Cc1ccc(C(=O)c2cc(O)c(O)c([N+](=O)[O-])c2)cc1`, the AC50 is 12.3 µM [falling, single point].
On to `Cn1cncc1C(N)(c1ccc(Cl)cc1)c1ccc2c(c1)c(-c1cccc(Cl)c1)cc(=O)n2C` (stereo not given), for which the concentration at half-maximal activity (AC50) is 15.5 µM [falling, single point].
Consider `CC[C@@]1(O)C(=O)OCc2c1cc1n(c2=O)Cc2c-1nc1ccccc1c2CCNC(C)C`, for which the half-maximal activity concentration (AC50) is 0.0069 µM [falling, full curve].
The same measure for `Cc1cc(O[C@@H](CCC(F)(F)F)c2ccc(C(=O)NCCC(=O)O)cc2)cc(C)c1-c1ccc(C(C)(C)C)cc1`: 17.4 µM [falling, single point]; for `C=C1C(=O)OC2/C=C(/C)CC/C=C(/C)CCC12` (stereo not given): 27.5 µM [falling, single point].
On to `CC(C)CC(=O)N[C@H](C(=O)N[C@H](C(=O)N[C@@H](CC(C)C)[C@@H](O)CC(=O)N[C@@H](C)C(=O)N[C@@H](CC(C)C)[C@@H](O)CC(=O)O)C(C)C)C(C)C`, for which the AC50 is 6.16 µM [rising, partial curve, poor fit].
The same measure for `CN(C)CCNC(=O)NC[C@H]1CC[C@@H]2[C@H](O1)c1cc(C(F)(F)F)ccc1N[C@H]2c1ccccc1`: 0.389 µM [falling, full curve]; for `CCN1CCN(Cc2ccc(NC(=O)c3ccc(C)c(/C=C/c4cnc5[nH]ccc5c4OC)c3)cc2C(F)(F)F)CC1`: 6.16 µM [falling, partial curve].
The same measure for `COC(=O)C[C@](O)(CCCC(C)(C)O)C(=O)O[C@@H]1C(OC)=C[C@]23CCCN2CCc2cc4c(cc2[C@H]13)OCO4`: 0.195 µM [falling, full curve]; for `FC(F)(F)c1ccc(/C=C/c2nc(COc3ccc(CCCCn4ccnn4)cc3)co2)cc1`: 0.0174 µM [falling, full curve]; for `COc1ccc(CNc2nc(N(CCO)CCO)nc3c2ncn3C(C)C)cc1`: 4.9 µM [falling, full curve].
The result for `C[C@H](c1ccc(F)cc1CCCC(=O)O)N(c1cc(F)ccc1F)S(=O)(=O)c1ccc(Cl)cc1` reads 1.55 µM [rising, partial curve]; that for `CN(C)C1CCN(C(=O)c2ccc(NC(=O)Nc3ccc(-c4nc(N5CCOCC5)nc(N5CCOCC5)n4)cc3)cc2)CC1`, 155 nM [falling, full curve] and 77.6 nM [falling, full curve].
